According to PubChem BioAssay AID900 (National Center for Advancing Translational Sciences (NCATS), 2007):
The whole screen tested about 75,000 compounds, of which about 20 (0.03%) were called active. Inconclusive results, whose numbers are uncertain, are shown with a selection of clear calls. Calls follow the shape of the dose curve; as a rule, active = well fitted inhibition curve with a large enough effect; inconclusive = small, poorly fitted or top-dose-only effect; inactive = flat fitted curve, though single readings scatter. Potencies of inconclusive entries are left out as doubtful fits.

target: Caspase-1 (Homo sapiens) (UniProt P29466); test: qHTS Assay for Allosteric/Competitive Inhibitors of Caspase-1; conditions: Caspase-1 enzyme, Ac-WEHD-AFC fluorogenic rate; activity change, negative = inhibition: at 57.5 µM (top of the series) unless noted;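 as to activity change, negative = inhibition: plate controls were vehicle for no effect and no substrate for full effect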
Potency is read from the fitted curve at half-maximal effect; tags tell the direction and shape of the fitted curve or compound fluorescence and quenching.

Compound | Potency | activity change, negative = inhibition
COc1ccc(C)cc1NC(=O)CSc1nnc(-c2cc3cccc(OC)c3o2)n1N | inactive | 
COc1ccc(OC)c(S(=O)(=O)Nc2ccc(O)c3ccccc23)c1 | inconclusive [inhibitor, single point] | 
O=C1c2ccccc2C(=O)C1(O)O | inconclusive [inhibitor, partial curve] | 
Cc1nc2cnc(N(C)C)nc2n(C2CC2)c1=O | inconclusive [inhibitor, partial curve] | 
CCOC(=O)c1cnc2c(C(F)(F)F)cccc2c1N1CCOCC1 | inactive | 
COc1ccc(-c2ccc(-c3noc(-c4cccs4)n3)c(OC)n2)cc1 | inconclusive [inhibitor, partial curve] | 
CCOC(=O)c1cccc(NC(=O)CSc2nnc(CNc3ccc(C)cc3)n2CC)c1 | inactive | 
Cc1nn(-c2ccccc2)c2sc(C(=O)N(CC(=O)NC(C)(C)C)Cc3ccco3)cc12 | inactive | 
CCn1c(=O)c2c(n3cnnc13)-c1ccccc1CC21CCCCC1 | inactive | 
CCC(c1nnnn1Cc1ccccc1)N(Cc1cc2cc(OC)ccc2[nH]c1=O)CC1CCCO1 (configuration not stated) |  | inconclusive: -15.8% [inhibitor]
c1ccc(CNc2cc(-c3cccnc3)ncn2)cc1 | inactive | 
CC1=C(C(=O)OCc2ccccc2)C(c2ccc(C(C)(C)C)cc2)NC(=O)N1CCCCCC(=O)O (configuration not stated) | inconclusive [inhibitor, single point] | 
O=C(c1ccccc1)c1ccc(N2CCCC2)cc1 |  | inconclusive: -15.9% [inhibitor]
CCC12CCCN3CCC4(C(=C(C(=O)OC)C1)Nc1ccccc14)C32 (configuration not stated) | inactive | 
CCOC(=O)c1cnn2c(C(F)(F)F)cc(-c3cn(C)nc3C)nc12 | inconclusive [inhibitor, partial curve] | 
Cc1nc2cnc(Nc3ccccc3)nc2n(C2CC2)c1=O | inconclusive [inhibitor, single point] | 
CN(C)c1ccc(C(=C2C=CC(=[N+](C)C)C=C2)c2c(O)c(S(=O)(=O)O)cc3cc(S(=O)(=O)O)ccc23)cc1 |  | inactive: -2.46% [at 11.5 µM]
CN1CCc2c(cc(O)c(O)c2Cl)[C@H](c2cccc(Cl)c2)C1 | inactive | 
COc1ccc(-n2c(N)c(-c3nc4ccccc4n3C)sc2=S)cc1 | inconclusive [inhibitor, partial curve] | 
CCn1c2ccccc2c2cc(/C=N/n3cnnc3)ccc21 | inconclusive [inhibitor, partial curve] | 
CCC(CC)COC(=O)C(C#N)c1nc2ccccc2nc1N1CCN(CC)CC1 (configuration not stated) | inconclusive [inhibitor, partial curve] | 
COc1ccc(CCNC(=O)c2sc(=S)n(C)c2N)cc1 | inconclusive [inhibitor, single point] | 
C[N+](C)(C)CC(=O)N/N=C\c1c(O)ccc2ccccc12 | inconclusive [inhibitor, single point] | 
CCc1nnc(NC(=O)c2ccc(S(=O)(=O)N(CC)CC)cc2)s1 | inconclusive [inhibitor, single point] | 

Compound | Potency | activity change, negative = inhibition
CCc1ccc(C2CC(c3ccccc3)Nc3nc(N)nn32)cc1 (configuration not stated) | inconclusive [inhibitor, single point] | 
CCOC(=O)C1CCCN(C(=O)c2cc3nc(-c4cccc(OC)c4)cc(C(F)(F)F)n3n2)C1 (configuration not stated) | inconclusive [inhibitor, partial curve] | 
COc1ccc(C2C(C(=O)N3CCOCC3)=C(C)NC3=C2C(=O)CC(C)(C)C3)c(OC)c1 (configuration not stated) | inconclusive [fluorescent, partial curve] | 
Cc1ccccc1-c1nnc(SCC(=O)NC2CCCCC2)o1 | inactive | 
O=C1C(Cl)=C(NC2CCc3ccccc32)C(=O)c2ncccc21 (configuration not stated) | active: 1.58 µM | 
O=S(=O)(c1ccccc1)N1CCC2(CCCN(c3cccc(-c4ccccc4)c3)C2)CC1 | inactive | 
O=C(N/N=C/c1ccc(O)cc1O)c1cc(-c2ccccc2)n[nH]1 | inactive | 
CO[C@H]1COC(=O)CCC[C@H](C)[C@H](OC)COC(=O)C/C=C\[C@@H]1C | inconclusive [inhibitor, single point] | 
CCN(CC)S(=O)(=O)c1ccc2nc(NC(=O)c3cccs3)sc2c1 |  | inconclusive: -16.2% [inhibitor]
N#CCCn1c(=O)c(-c2cccs2)nc2cnc(N3CCOCC3)nc21 | inconclusive [fluorescent] | 
Cc1cc(C)c2[nH]c(=O)c(CN(Cc3ccc4c(c3)OCO4)Cc3nnnn3C3CCCC3)cc2c1 | inconclusive [inhibitor, single point] | 
OB(O)O | inactive | 
Cc1cc(C)nc(-n2nc(C)c(C3(O)C(=O)Nc4ccccc43)c2N)n1 (configuration not stated) | inactive | 
Cn1c(CCCOc2ccc(Cl)cc2Cl)nnc1SCC(=O)Nc1nccs1 | inactive | 
CC1CCCN(c2nc3ccccc3nc2C(C#N)S(=O)(=O)c2ccccc2)C1 (configuration not stated) | inconclusive [inhibitor, partial curve] | 
Oc1ccccc1O | inactive | 
Cc1cc(N2CCCCC2)n2ncc(-c3ccccc3)c2n1 | inconclusive [inhibitor, single point] | 
O=C(Cn1c(=O)oc2ccccc21)N1CCN(c2ccc(N3CCOCC3)nn2)CC1 | inconclusive [inhibitor, partial curve] | 
CCCn1c(C)nc2c(N(CCOC)CCOC)nc(C)nc21 | inactive | 
CC(=O)C1=C(C)OC(N)=C(C#N)C1c1ccco1 (configuration not stated) | inconclusive [inhibitor, single point] | 
Cc1nn(-c2ccc(F)cc2F)c2c1-c1nc(N3CCCC3)ncc1CC2 | inactive | 
CCc1cc(C(=O)OC)c(NC(=O)c2cc(Br)cs2)s1 | inconclusive [inhibitor, partial curve] | 
COc1ccc(C(C(=O)NC2CCCC2)N(CCN(C)C)C(=O)c2snc(C(N)=O)c2N)cc1 (configuration not stated) | inactive | 
CCOC(=O)N1CCN(c2nc3ccccc3nc2C(C#N)C(=O)NCCc2ccccc2)CC1 (configuration not stated) | inconclusive [inhibitor, partial curve] | 

Compound | Potency | activity change, negative = inhibition
C=N[C@H](C(=O)N[C@@H]1C(=O)N2[C@@H]1SC(C)(C)[C@@H]2C(=O)O)c1ccccc1 | inactive | 
CCNc1ncc2nc(CCc3ccccc3)c(=O)n(C[C@H]3CCCO3)c2n1 | inconclusive [inhibitor, partial curve] | 
COC(=O)[C@@]1(Cc2ccc(F)cc2)[C@H]2c3cc(C(=O)N(C)C)n(Cc4ccc(S(C)(=O)=O)cc4)c3C[C@H]2CN1C(=O)c1ccccc1 | inactive | 
CCCS(=O)(=O)c1c(S(=O)(=O)CCC)c2c(N)cccn2c1C(=O)c1ccc(F)cc1 | inconclusive [inhibitor, single point] | 
CCCCCCCN | inactive | 
Oc1cc(O)cc(/C=C\c2ccc(O)c(O)c2)c1 | inconclusive [inhibitor, single point] | 
O=C(Nc1ccc2[nH]c3c(c2c1)CCCC3)c1ccco1 | inconclusive [inhibitor, partial curve] | 
Clc1ccc(-c2nnc(SCc3ccon3)o2)c(Cl)c1 | inactive | 
Cc1ccc2c(c1)C1C=CCC1C(C(=O)O)N2 (configuration not stated) |  | inconclusive: -15.8% [inhibitor]
CCn1nc(NC(=O)c2ccncc2)c2cc3cc(C)ccc3nc21 |  | inconclusive: -16.7% [inhibitor]
COC(OC)[C@@H](C)[C@H](OC)[C@@H](C)[C@H](OC)c1ccccc1 |  | inactive: -0.559% [at 11.5 µM]
Cc1cc(=O)oc2cc(O)ccc12 | inconclusive [inhibitor, partial curve] | 
NC(=O)C1CCN(C(=O)CN2CCCc3ccccc32)CC1 | inconclusive [inhibitor, partial curve] | 
CC(=Nc1ccc(O)cc1)c1sc2ccccc2c1O |  | inconclusive: -17.4% [inhibitor]
O=S1(=O)C=C(Sc2nc3cc(Cl)ccc3o2)c2ccccc21 | inactive | 
Cc1c(Nc2nc3ccccc3nc2N2CCN(c3ccccc3)CC2)c(=O)n(-c2ccccc2)n1C | inconclusive [inhibitor, single point] | 
CCC1=C(OC(=O)N(CC)CC)N2C(=O)OC(=NCCOC)[C@]2(Cc2ccccc2)[C@H]2C1=CC[C@H]1C(=O)N(C)C(=O)[C@H]12 | inactive | 
O=C(CSc1nc2ccccc2o1)c1cc2ccccc2oc1=O | inconclusive [inhibitor, single point] | 
COCCNC(=O)[C@H](C)[C@H]1C[C@]1(C)[C@H](NC(=O)OCc1ccccc1)c1ccccc1 | inconclusive [inhibitor, single point] | 
Cn1c(=O)c2c(nc(CN3CCc4ccccc4C3)n2CC(=O)c2ccccc2)n(C)c1=O | inconclusive [inhibitor, single point] | 
COc1ccccc1NC(=O)CSc1nccc(=O)[nH]1 | inconclusive [fluorescent, full curve] | 
CCC(c1nnnn1Cc1ccc(F)cc1)N(CCCO)Cc1cc2cc3c(cc2[nH]c1=O)OCO3 (configuration not stated) | inconclusive [inhibitor, partial curve] | 
CC(C)=CCC/C(C)=C/CO/N=C1/C[C@@H](O)[C@@H](O)[C@@H]2[C@@H]3C(=O)N(Cc4ccccc4)C(=O)[C@H]3CC[C@@H]12 |  | inactive: -0.544% [at 11.5 µM]
C/C(CCN1CCc2nc(-c3ccccc3)c(-c3ccccc3)cc2C1)=N\O[C@@H](C)CN1CCCc2nc(C)c(C)cc21 |  | inactive: -3.84% [at 11.5 µM]
